From the supplement of paper PMC6089552
The whole screen tested about 3,200 compounds, of which about 300 (9.4%) showed activity. The list shows a part of the results, in another mix than the full data.

System: A673/TR/shEF
Assay: cell viability (LOESS-normalised, relative to median of negative controls) (log2 ratio); higher = more viable cells (less compound effect), active = hit call of the paper (over 3 MAD below the median)
Conditions: treatment time: 72 h
Method in brief: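 For three days, A673/TR/shEF Ewing sarcoma cells in 384-well plates (1,500 per well) were treated with library compounds at two or more concentrations or with DMSO controls, after doxycycline had been added or withheld 24 h beforehand to induce EWS-FLI1 shRNA knockdown. Viability was read by CellTiter-Glo luminescence on an Envision reader. The data were LOESS-corrected per plate, divided by the median of negative controls and log2-transformed.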

[1] = 0.25 µM, library screen: screen2, EWS-FLI1 expression: high (no doxycycline)
[2] = 0.25 µM, library screen: screen2, EWS-FLI1 expression: low (doxycycline-induced shRNA knockdown)
[3] = 2.5 µM, library screen: screen2, EWS-FLI1 expression: high (no doxycycline)
[4] = 2.5 µM, library screen: screen2, EWS-FLI1 expression: low (doxycycline-induced shRNA knockdown)
[5] = 0.25 µM, library screen: screen1, EWS-FLI1 expression: high (no doxycycline)
[6] = 0.25 µM, library screen: screen1, EWS-FLI1 expression: low (doxycycline-induced shRNA knockdown)
[7] = 2.5 µM, library screen: screen1, EWS-FLI1 expression: high (no doxycycline)
[8] = 2.5 µM, library screen: screen1, EWS-FLI1 expression: low (doxycycline-induced shRNA knockdown)

Measured: cell viability (log2)

C[N+]1(C)C2CCC1CC(OC(=O)C(CO)c1ccccc1)C2 (centres undefined)
inactive: [1] 0.176 | [2] 0.157 | [3] 0.136 | [4] 0.121

COc1ccc(C(=O)OC2CCC3(C)C4CCC5[C@]6(O)C[C@H](O)[C@@]7(O)C(CN8CC(C)CCC8[C@@]7(C)O)[C@]6(O)C[C@@]53O[C@]24O)cc1OC (some centres undefined)
inactive: [5] 0.0564 | [6] 0.0531 | [7] 0.0896 | [8] 0.133

C[Se]C[C@H](N)C(=O)O
inactive: [1] 0.11 | [2] 0.0416 | [3] 0.149 | [4] 0.0546

NCC(CC(=O)O)c1ccc(Cl)cc1 (centres undefined)
inactive: [5] 0.0966 | [6] 0.12 | [1] 0.221 | [2] 0.138 | [7] 0.123 | [8] 0.15 | [3] 0.124 | [4] 0.0836

Cc1ccccc1O
inactive: [5] 0.162 | [6] 0.0964 | [7] 0.189 | [8] 0.175

CN(C)[C@@H]1C(=O)C(C(N)=O)=C(O)[C@@]2(O)C(=O)C3=C(O)c4c(O)cccc4[C@@](C)(O)[C@H]3C[C@@H]12
active: [5] -0.127

CCCN1CCC[C@@H](c2cccc(C#N)c2)C1
inactive: [1] 0.21 | [2] 0.0529 | [3] 0.222 | [4] 0.141

CC1(C)[C@H](C(=O)O[C@H](C#N)c2cccc(Oc3ccccc3)c2)[C@@H]1C=C(Br)Br
inactive: 0.025 µM, library screen: screen1, EWS-FLI1 expression: high (no doxycycline) 0.0513 | 0.025 µM, library screen: screen1, EWS-FLI1 expression: low (doxycycline-induced shRNA knockdown) -0.0407 | [5] 0.047 | [6] 0.086 | [7] 0.112 | [8] 0.12 | 25 µM, library screen: screen1, EWS-FLI1 expression: high (no doxycycline) -0.0163 | 25 µM, library screen: screen1, EWS-FLI1 expression: low (doxycycline-induced shRNA knockdown) 0.0977

CC(NC(C)(C)C)C(=O)c1cccc(Cl)c1 (centres undefined)
inactive: 0.103 µM, library screen: screen3, EWS-FLI1 expression: high (no doxycycline) 0.0767 | 0.103 µM, library screen: screen3, EWS-FLI1 expression: low (doxycycline-induced shRNA knockdown) 0.0873 | [5] 0.182 | [6] 0.0913 | [1] 0.226 | [2] 0.117 | 0.308 µM, library screen: screen3, EWS-FLI1 expression: high (no doxycycline) 0.129 | 0.308 µM, library screen: screen3, EWS-FLI1 expression: low (doxycycline-induced shRNA knockdown) 0.062 | 0.926 µM, library screen: screen3, EWS-FLI1 expression: high (no doxycycline) 0.0592 | 0.926 µM, library screen: screen3, EWS-FLI1 expression: low (doxycycline-induced shRNA knockdown) 0.0977 | [7] 0.187 | [8] -0.00861 | [3] 0.0526 | [4] 0.0601 | 2.8 µM, library screen: screen3, EWS-FLI1 expression: high (no doxycycline) 0.0838 | 2.8 µM, library screen: screen3, EWS-FLI1 expression: low (doxycycline-induced shRNA knockdown) 0.0713 | 8.3 µM, library screen: screen3, EWS-FLI1 expression: high (no doxycycline) 0.0119 | 8.3 µM, library screen: screen3, EWS-FLI1 expression: low (doxycycline-induced shRNA knockdown) 0.0647 | 25 µM, library screen: screen3, EWS-FLI1 expression: high (no doxycycline) 0.131 | 25 µM, library screen: screen3, EWS-FLI1 expression: low (doxycycline-induced shRNA knockdown) 0.0511

NC(CP(=O)(O)O)C(=O)O (centres undefined)
inactive: [1] 0.0911 | [2] 0.12 | [3] 0.132 | [4] 0.122

CN1CCc2cc(O)cc3c2C1Cc1ccc(O)c(O)c1-3 (centres undefined)
inactive: [1] 0.248 | [2] 0.14 | [3] 0.197 | [4] 0.135

O=C1CC[C@@]2(O)[C@H]3Cc4ccc(O)c5c4[C@@]2(CCN3CC2CC2)[C@H]1O5
inactive: [5] 0.0954 | [6] 0.126 | [1] 0.163 | [2] 0.116 | [7] 0.095 | [8] 0.0763 | [3] 0.183 | [4] 0.128

NC(=O)c1cc([N+](=O)[O-])cc([N+](=O)[O-])c1
inactive: 0.025 µM, library screen: screen2, EWS-FLI1 expression: high (no doxycycline) 0.148 | 0.025 µM, library screen: screen2, EWS-FLI1 expression: low (doxycycline-induced shRNA knockdown) 0.069 | [5] 0.071 | [6] 0.00829 | [1] 0.134 | [2] 0.0542 | [7] 0.16 | [8] 0.158 | [3] 0.195 | [4] 0.121 | 25 µM, library screen: screen2, EWS-FLI1 expression: high (no doxycycline) 0.244 | 25 µM, library screen: screen2, EWS-FLI1 expression: low (doxycycline-induced shRNA knockdown) 0.114

COc1ccc2c(c1O)-c1c(OC)c(OC)cc3c1[C@H](C2)N(C)CC3
inactive: [5] -0.01 | [6] -0.0109 | [7] 0.111 | [8] 0.131
